Where a chain is given by its changes, count along the chain named. These are yes or no findings as the source states them, for the method shown. Binding seen in cells or lysates may run through a third protein. Some binding calls cover weakened binding; strength is not graded here. For part of these data: Sequences can lack the tags named with a protein.
T1: Rbm24, endogenous in HL-1 cells (mouse (endogenous in HL-1)) (UniProt D3Z4I3)
T1 sequence: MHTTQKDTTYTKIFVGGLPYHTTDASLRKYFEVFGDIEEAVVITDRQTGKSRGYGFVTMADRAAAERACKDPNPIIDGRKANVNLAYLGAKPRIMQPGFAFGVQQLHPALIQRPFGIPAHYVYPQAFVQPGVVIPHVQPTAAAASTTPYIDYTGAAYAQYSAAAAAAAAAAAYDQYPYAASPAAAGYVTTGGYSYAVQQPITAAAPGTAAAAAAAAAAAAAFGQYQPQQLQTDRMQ

Amino acid sequences for entries named in this document (tags omitted).
UniProt Q15208: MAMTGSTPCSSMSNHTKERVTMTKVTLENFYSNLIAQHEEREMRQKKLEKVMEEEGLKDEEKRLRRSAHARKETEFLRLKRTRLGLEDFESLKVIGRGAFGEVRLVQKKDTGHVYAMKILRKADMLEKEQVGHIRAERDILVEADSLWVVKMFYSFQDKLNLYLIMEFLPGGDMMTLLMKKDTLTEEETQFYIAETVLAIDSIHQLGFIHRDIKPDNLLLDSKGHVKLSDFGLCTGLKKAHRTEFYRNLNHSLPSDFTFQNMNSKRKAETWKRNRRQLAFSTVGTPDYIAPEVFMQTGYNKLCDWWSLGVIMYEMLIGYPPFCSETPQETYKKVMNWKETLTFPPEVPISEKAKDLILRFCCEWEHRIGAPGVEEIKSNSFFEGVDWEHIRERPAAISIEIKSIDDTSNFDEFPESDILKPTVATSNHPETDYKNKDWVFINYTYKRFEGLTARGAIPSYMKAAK
UniProt Q91VJ4: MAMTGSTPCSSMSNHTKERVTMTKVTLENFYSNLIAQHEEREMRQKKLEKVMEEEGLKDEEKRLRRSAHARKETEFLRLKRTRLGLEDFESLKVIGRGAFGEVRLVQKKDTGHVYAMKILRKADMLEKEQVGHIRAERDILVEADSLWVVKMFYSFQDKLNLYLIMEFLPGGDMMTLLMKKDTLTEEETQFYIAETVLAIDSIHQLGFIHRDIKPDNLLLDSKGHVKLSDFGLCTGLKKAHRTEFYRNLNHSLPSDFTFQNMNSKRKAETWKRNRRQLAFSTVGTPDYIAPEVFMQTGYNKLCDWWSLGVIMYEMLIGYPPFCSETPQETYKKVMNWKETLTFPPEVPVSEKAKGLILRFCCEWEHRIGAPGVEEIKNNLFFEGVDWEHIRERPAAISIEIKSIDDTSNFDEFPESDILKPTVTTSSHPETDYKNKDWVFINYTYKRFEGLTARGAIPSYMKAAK

B1: Myc-Rbm24 (full length) (protein, UniProt Q9BX46 1-236)
chain: T1 sequence with D36E, T190A, S194G
B2: Myc-RRM of Rbm24 (domain or fragment, UniProt Q9BX46 11-88)
chain: TKIFVGGLPYHTTDASLRKYFEVFGEIEEAVVITDRQTGKSRGYGFVTMADRAAAERACKDPNPIIDGRKANVNLAYL
B3: Myc-1-138 fragment of Rbm24 (domain or fragment, UniProt Q9BX46 1-138)
chain: MHTTQKDTTYTKIFVGGLPYHTTDASLRKYFEVFGEIEEAVVITDRQTGKSRGYGFVTMADRAAAERACKDPNPIIDGRKANVNLAYLGAKPRIMQPGFAFGVQQLHPALIQRPFGIPAHYVYPQAFVQPGVVIPHVQ
B4: Myc-1-188 fragment of Rbm24 (domain or fragment, UniProt Q9BX46 1-188)
chain: MHTTQKDTTYTKIFVGGLPYHTTDASLRKYFEVFGEIEEAVVITDRQTGKSRGYGFVTMADRAAAERACKDPNPIIDGRKANVNLAYLGAKPRIMQPGFAFGVQQLHPALIQRPFGIPAHYVYPQAFVQPGVVIPHVQPTAAAASTTPYIDYTGAAYAQYSAAAAAAAAAAAYDQYPYAASPAAAGYV

How the values were obtained:
[1] = target: T1, Rbm24, endogenous in HL-1 cells (mouse (endogenous in HL-1)); test: co-IP; anti-Rbm24 immunoprecipitation from HL-1 cells; western blot with anti-Stk38 antibody; both proteins endogenous
[2] = target: Flag-Stk38 (full length) (UniProt Q15208); test: co-IP; lysates of HEK293 cells transfected with Flag-Stk38 and Myc-Rbm24 treated with RNase A, then immunoprecipitated with anti-Flag antibody; western blot
[3] = target: Flag-Stk38 (full length) (UniProt Q15208); test: co-IP; lysates of HEK293 cells transfected with Flag-Stk38 and Myc-Rbm24 (full length or fragments); immunoprecipitated with anti-Flag antibody; western blot

Molecule	binding [1]	binding [2]	binding [3]
Stk38, endogenous in HL-1 cells (from UniProt Q91VJ4 1-465) (enzyme)	binds		
B1		binds	binds
B2			no binding
B3			no binding
B4			no binding

Source: PMC5359592
